{"source": "the supplement of paper PMC10037445", "key": {"RAW-Dual [1]": {"tested_on": "RAW-Dual", "experiment": "IRF Lucia reporter activity, fold change vs agonist alone; cytotoxicity flag (confluency mask): not cytotoxic; higher = enhanced IRF activity", "in_short": "(§1)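 RAW-Dual macrophages were seeded in DMEM at 50,000 cells/well in 384-well plates, given 50 nL of library stock by pin tool, and given a PRR agonist 1 h later. Plates were held at 37 °C, 5% CO2 for 20 hours, after which supernatant was read for IRF by QuantiLuc luminescence and for NF-κB by QuantiBlue absorbance at 620 nm. Reporter activity is expressed as fold change over wells that received agonist alone. A well was called cytotoxic when IncuCyte confluency fell below 70% of agonist controls in both mask sets.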"}, "RAW-Dual [2]": {"tested_on": "RAW-Dual", "experiment": "IRF Lucia reporter activity, fold change vs agonist alone; higher = enhanced IRF activity", "settings": "cytotoxicity flag (confluency mask): not cytotoxic, agonist: MPLA (TLR4) […]", "in_short": "as §1"}, "RAW-Dual [3]": {"tested_on": "RAW-Dual", "experiment": "IRF Lucia reporter activity, fold change vs agonist alone; cytotoxicity flag (confluency mask): cytotoxic (confluency <70% of control); higher = enhanced IRF activity", "in_short": "as §1"}, "[4]": {"settings": "agonist: 3'3'-cGAMP (STING) 10 ug/mL"}, "[5]": {"settings": "library stock concentration (final ~1000-fold dilution): 10 mM"}}, "note": "In all, about 2,900 compounds were measured (“IRF Lucia reporter activity, fold change vs agonist alone”: median about 0.9, highest 2% from about 2.8 on). Some of the results follow.", "data": [{"smiles": "CNc1cccc(CCOc2ccc3c(c2)CN(CC(F)(F)F)C(=O)C(CC(=O)O)C3)n1", "note": "(stereo not drawn) (library stock concentration (final ~1000-fold dilution): 10 mM)", "values": [{"measurement": "IRF Lucia reporter activity", "setting": "RAW-Dual [1]; [4]", "result": 1.23}, {"measurement": "IRF Lucia reporter activity", "setting": "RAW-Dual [1]; agonist: LPS (TLR4) 0.1 ug/mL", "result": 1.19}]}, {"smiles": "CNc1cccc(CCOc2ccc3c(c2)CN(CC(F)(F)F)C(=O)C(CC(=O)O)C3)n1", "note": "(stereo not drawn)", "values": [{"measurement": "IRF Lucia reporter activity", "setting": "RAW-Dual [2]; [5]", "result": 1.18}]}, {"smiles": "C=C(C)[C@@H]1CC[C@]2(C(=O)O)CC[C@]3(C)[C@H](CC[C@@H]4[C@@]5(C)CC[C@H](O)C(C)(C)[C@@H]5CC[C@]43C)[C@@H]12", "note": "(library stock concentration (final ~1000-fold dilution): 10 mM)", "values": [{"measurement": "IRF Lucia reporter activity", "setting": "RAW-Dual [1]; [4]", "result": 0.325}, {"measurement": "IRF Lucia reporter activity", "setting": "RAW-Dual [1]; agonist: LPS (TLR4) 0.1 ug/mL", "result": 1.04}]}, {"smiles": "O=c1ccc2cc3ccoc3cc2o1", "values": [{"measurement": "IRF Lucia reporter activity", "setting": "RAW-Dual [2]; [5]", "result": 1.07}]}, {"smiles": "O=c1ccc2cc3ccoc3cc2o1", "note": "(library stock concentration (final ~1000-fold dilution): 10 mM)", "values": [{"measurement": "IRF Lucia reporter activity", "setting": "RAW-Dual [1]; [4]", "result": 0.975}, {"measurement": "IRF Lucia reporter activity", "setting": "RAW-Dual [1]; agonist: LPS (TLR4) 0.1 ug/mL", "result": 1}]}, {"smiles": "CN(C)CC/C=C1/c2ccccc2COc2ccc(CC(=O)O)cc21.Cl", "values": [{"measurement": "IRF Lucia reporter activity", "setting": "RAW-Dual [2]; [5]", "result": 1.08}]}, {"smiles": "CN(C)CC/C=C1/c2ccccc2COc2ccc(CC(=O)O)cc21.Cl", "note": "(library stock concentration (final ~1000-fold dilution): 10 mM)", "values": [{"measurement": "IRF Lucia reporter activity", "setting": "RAW-Dual [1]; [4]", "result": 1.04}, {"measurement": "IRF Lucia reporter activity", "setting": "RAW-Dual [1]; agonist: LPS (TLR4) 0.1 ug/mL", "result": 1.01}]}, {"smiles": "CCCCCCOC(=O)c1cc(O)c(=O)c2c(O)c(O)c(OC)cc2c1", "note": "(library stock concentration (final ~1000-fold dilution): 10 mM)", "values": [{"measurement": "IRF Lucia reporter activity", "setting": "RAW-Dual [1]; [4]", "result": 0.0307}, {"measurement": "IRF Lucia reporter activity", "setting": "RAW-Dual [1]; agonist: LPS (TLR4) 0.1 ug/mL", "result": 0.492}]}, {"smiles": "CS(=O)(=O)Nc1cc2occ(NC=O)c(=O)c2cc1Oc1ccccc1", "note": "(library stock concentration (final ~1000-fold dilution): 10 mM)", "values": [{"measurement": "IRF Lucia reporter activity", "setting": "RAW-Dual [1]; [4]", "result": 1.04}, {"measurement": "IRF Lucia reporter activity", "setting": "RAW-Dual [1]; agonist: LPS (TLR4) 0.1 ug/mL", "result": 0.975}]}, {"smiles": "CS(=O)(=O)Nc1cc2occ(NC=O)c(=O)c2cc1Oc1ccccc1", "values": [{"measurement": "IRF Lucia reporter activity", "setting": "RAW-Dual [2]; [5]", "result": 1.08}]}, {"smiles": "CC(C)NC(=O)COc1cccc(-c2nc(Nc3ccc4[nH]ncc4c3)c3ccccc3n2)c1", "note": "(library stock concentration (final ~1000-fold dilution): 10 mM)", "values": [{"measurement": "IRF Lucia reporter activity", "setting": "RAW-Dual [1]; [4]", "result": 0.0593}, {"measurement": "IRF Lucia reporter activity", "setting": "RAW-Dual [1]; agonist: LPS (TLR4) 0.1 ug/mL", "result": 1.42}]}, {"smiles": "COc1ccc2c3c1OC1CC(O)C=CC31CCN(C)C2", "note": "(stereo not drawn)", "values": [{"measurement": "IRF Lucia reporter activity", "setting": "RAW-Dual [2]; [5]", "result": 1.16}]}, {"smiles": "COc1ccc2c3c1OC1CC(O)C=CC31CCN(C)C2", "note": "(stereo not drawn) (library stock concentration (final ~1000-fold dilution): 10 mM)", "values": [{"measurement": "IRF Lucia reporter activity", "setting": "RAW-Dual [1]; [4]", "result": 1.1}, {"measurement": "IRF Lucia reporter activity", "setting": "RAW-Dual [1]; agonist: LPS (TLR4) 0.1 ug/mL", "result": 1.24}]}, {"smiles": "O=C(COc1cccc2c(=O)[nH]ccc12)c1ccccc1", "note": "(library stock concentration (final ~1000-fold dilution): 10 mM)", "values": [{"measurement": "IRF Lucia reporter activity", "setting": "RAW-Dual [1]; [4]", "result": 0.685}, {"measurement": "IRF Lucia reporter activity", "setting": "RAW-Dual [1]; agonist: LPS (TLR4) 0.1 ug/mL", "result": 0.623}]}, {"smiles": "C=C(CC)C(=O)c1ccc(OCC(=O)O)c(Cl)c1Cl", "values": [{"measurement": "IRF Lucia reporter activity", "setting": "RAW-Dual [2]; [5]", "result": 0.855}]}, {"smiles": "C=C(CC)C(=O)c1ccc(OCC(=O)O)c(Cl)c1Cl", "note": "(library stock concentration (final ~1000-fold dilution): 10 mM)", "values": [{"measurement": "IRF Lucia reporter activity", "setting": "RAW-Dual [1]; [4]", "result": 0.648}, {"measurement": "IRF Lucia reporter activity", "setting": "RAW-Dual [1]; agonist: LPS (TLR4) 0.1 ug/mL", "result": 0.785}]}, {"smiles": "CCc1c2c(nc3ccc(O)cc13)-c1cc3c(c(=O)n1C2)COC(=O)C3(O)CC", "note": "(stereo not drawn)", "values": [{"measurement": "IRF Lucia reporter activity", "setting": "RAW-Dual [2]; [5]", "result": 1.65}]}, {"smiles": "CCc1c2c(nc3ccc(O)cc13)-c1cc3c(c(=O)n1C2)COC(=O)C3(O)CC", "note": "(stereo not drawn) (library stock concentration (final ~1000-fold dilution): 10 mM)", "values": [{"measurement": "IRF Lucia reporter activity", "setting": "RAW-Dual [1]; [4]", "result": 1.24}, {"measurement": "IRF Lucia reporter activity", "setting": "RAW-Dual [1]; agonist: LPS (TLR4) 0.1 ug/mL", "result": 1.29}]}, {"smiles": "CCOCCn1c(C2CCN(CCc3ccc(C(C)(C)C(=O)O)cc3)CC2)nc2ccccc21", "note": "(library stock concentration (final ~1000-fold dilution): 2 mM)", "values": [{"measurement": "IRF Lucia reporter activity", "setting": "RAW-Dual [1]; [4]", "result": 0.971}, {"measurement": "IRF Lucia reporter activity", "setting": "RAW-Dual [1]; agonist: LPS (TLR4) 0.1 ug/mL", "result": 1.1}]}, {"smiles": "CCOCCn1c(C2CCN(CCc3ccc(C(C)(C)C(=O)O)cc3)CC2)nc2ccccc21", "values": [{"measurement": "IRF Lucia reporter activity", "setting": "RAW-Dual [2]; library stock concentration (final ~1000-fold dilution): 2 mM", "result": 1.14}]}, {"smiles": "CN1CCN(CC/C=C2/c3ccccc3Sc3ccc(S(=O)(=O)N(C)C)cc32)CC1", "note": "(library stock concentration (final ~1000-fold dilution): 10 mM)", "values": [{"measurement": "IRF Lucia reporter activity", "setting": "RAW-Dual [3]; [4]", "result": 0.409}, {"measurement": "IRF Lucia reporter activity", "setting": "RAW-Dual [3]; agonist: LPS (TLR4) 0.1 ug/mL", "result": 0.885}]}, {"smiles": "CC1OC(OC2C(CO)OC(OC3C(CO)OC(O)C(O)C3O)C(O)C2O)C(O)C(O)C1NC1C=C(CO)C(O)C(O)C1O", "note": "(stereo not drawn) (library stock concentration (final ~1000-fold dilution): 10 mM)", "values": [{"measurement": "IRF Lucia reporter activity", "setting": "RAW-Dual [1]; [4]", "result": 0.927}, {"measurement": "IRF Lucia reporter activity", "setting": "RAW-Dual [1]; agonist: LPS (TLR4) 0.1 ug/mL", "result": 0.756}]}, {"smiles": "CC1OC(OC2C(CO)OC(OC3C(CO)OC(O)C(O)C3O)C(O)C2O)C(O)C(O)C1NC1C=C(CO)C(O)C(O)C1O", "note": "(stereo not drawn)", "values": [{"measurement": "IRF Lucia reporter activity", "setting": "RAW-Dual [2]; [5]", "result": 0.939}]}, {"smiles": "COc1ccc(-c2ccc3c(N4CCOCC4)nc(N4CC(C)OC(C)C4)nc3n2)cc1CO", "note": "(stereo not drawn)", "values": [{"measurement": "IRF Lucia reporter activity", "setting": "RAW-Dual [2]; [5]", "result": 0.817}]}, {"smiles": "COc1ccc(-c2ccc3c(N4CCOCC4)nc(N4CC(C)OC(C)C4)nc3n2)cc1CO", "note": "(stereo not drawn) (library stock concentration (final ~1000-fold dilution): 10 mM)", "values": [{"measurement": "IRF Lucia reporter activity", "setting": "RAW-Dual [1]; [4]", "result": 0.776}, {"measurement": "IRF Lucia reporter activity", "setting": "RAW-Dual [1]; agonist: LPS (TLR4) 0.1 ug/mL", "result": 0.716}]}, {"smiles": "CNC1CCCN(c2c(F)cc3c(=O)c(C(=O)O)cn(C4CC4)c3c2OC)C1", "note": "(stereo not drawn)", "values": [{"measurement": "IRF Lucia reporter activity", "setting": "RAW-Dual [2]; [5]", "result": 0.995}]}, {"smiles": "CNC1CCCN(c2c(F)cc3c(=O)c(C(=O)O)cn(C4CC4)c3c2OC)C1", "note": "(stereo not drawn) (library stock concentration (final ~1000-fold dilution): 10 mM)", "values": [{"measurement": "IRF Lucia reporter activity", "setting": "RAW-Dual [1]; [4]", "result": 1.04}, {"measurement": "IRF Lucia reporter activity", "setting": "RAW-Dual [1]; agonist: LPS (TLR4) 0.1 ug/mL", "result": 0.907}]}]}
